# Experimental data taken from publication PMC4336329 (PLoS ONE, 2015).
# Hit rate of the full screen: of about 310,000 compounds, about 14,000 (4.5%) showed an effect of 50% or more. The effect is printed as a negative number. The list shows a part of the results.
# Biological target: human ether-à-go-go-related gene (hERG) potassium channel (human, UniProt Q12809)
# Assay: primary screen, population patch clamp on CHO cells stably expressing hERG
# 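Further: peak tail current of the secondary pulse compared with the same well before compound.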
# Chain of human ether-à-go-go-related gene (hERG) potassium channel (Q12809 whole entry, looked up): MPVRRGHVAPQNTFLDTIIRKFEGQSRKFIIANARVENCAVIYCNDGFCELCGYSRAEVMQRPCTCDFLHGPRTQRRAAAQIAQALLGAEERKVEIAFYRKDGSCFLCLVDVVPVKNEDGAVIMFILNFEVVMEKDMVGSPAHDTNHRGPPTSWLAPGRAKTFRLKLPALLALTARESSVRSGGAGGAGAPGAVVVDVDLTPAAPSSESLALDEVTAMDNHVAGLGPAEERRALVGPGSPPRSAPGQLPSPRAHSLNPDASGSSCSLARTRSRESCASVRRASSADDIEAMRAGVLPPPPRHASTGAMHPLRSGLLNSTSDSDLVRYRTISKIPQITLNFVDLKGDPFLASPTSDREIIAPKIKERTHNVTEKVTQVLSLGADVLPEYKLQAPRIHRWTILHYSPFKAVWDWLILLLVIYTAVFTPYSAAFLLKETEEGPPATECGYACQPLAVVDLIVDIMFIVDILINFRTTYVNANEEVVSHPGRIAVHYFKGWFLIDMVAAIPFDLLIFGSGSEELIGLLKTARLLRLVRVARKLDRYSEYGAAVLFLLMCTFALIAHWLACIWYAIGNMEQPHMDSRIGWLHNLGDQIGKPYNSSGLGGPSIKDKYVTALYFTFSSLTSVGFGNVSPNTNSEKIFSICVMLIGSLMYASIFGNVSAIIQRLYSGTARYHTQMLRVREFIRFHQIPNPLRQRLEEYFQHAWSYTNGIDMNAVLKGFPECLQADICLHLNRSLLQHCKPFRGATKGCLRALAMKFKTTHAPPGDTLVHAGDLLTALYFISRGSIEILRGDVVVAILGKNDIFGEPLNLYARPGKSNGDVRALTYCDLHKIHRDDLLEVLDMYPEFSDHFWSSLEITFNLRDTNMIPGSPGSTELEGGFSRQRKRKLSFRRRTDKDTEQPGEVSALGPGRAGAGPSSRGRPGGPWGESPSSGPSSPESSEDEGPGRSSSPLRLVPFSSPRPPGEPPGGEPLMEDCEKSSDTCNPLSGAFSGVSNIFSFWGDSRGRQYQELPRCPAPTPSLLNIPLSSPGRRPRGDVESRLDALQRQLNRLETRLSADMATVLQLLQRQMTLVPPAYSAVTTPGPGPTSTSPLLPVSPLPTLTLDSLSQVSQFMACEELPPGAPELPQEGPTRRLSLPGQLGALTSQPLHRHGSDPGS
row,Compound,"hERG current change (%, negative = inhibition) at 10uM [%]"
1,CCN(CC)S(=O)(=O)c1ccc(N(C)C)c(NC(=O)C2CCCC2)c1,-10.8
2,O=C(COc1ccc(C2SCCS2)cc1)Nc1ccc(Cl)cc1,0.33
3,CCc1cc2c(=O)c(-c3nc4ccccc4n3C)c(COCC(=O)O)oc2cc1O,7.39
4,COc1cc2c(cc1OC)CN(C(=O)CSc1nc(C)cc(C)c1C#N)CC2,-14.8
5,O=C(Cc1ccccc1)N(c1ccc(F)cc1)C1C=CS(=O)(=O)C1 (stereo not drawn),-3.93
6,CCCc1cc2c(=O)c(-c3cscn3)c(C(=O)OCC)oc2cc1O,-2.33
7,COc1ccccc1C(=O)N(Cc1ccco1)C1CCS(=O)(=O)C1 (stereo not drawn),1.2
8,COc1ccc(CCNC(=O)c2ccc3c(c2)OCO3)cc1,-2.88
9,CCN1CCC2(CC1)N=C(c1ccc(F)cc1)C(=S)N2C(=O)c1ccc(C(C)(C)C)cc1,-10.8
10,COCCNC(=O)C(c1ccc(F)cc1)N(C(=O)CCC(=O)Nc1ccccn1)C1CCCCC1 (stereo not drawn),13.2
11,O=C1c2ccccc2C(=O)C1(CO)c1ccc(OC(F)F)cc1,18.3
12,O=C(O)c1ccccc1Nc1ccc([N+](=O)[O-])c2nonc12,5.49
13,C#CCOc1ccccc1CNC1CCN(Cc2ccccc2)CC1.O=C(O)C(=O)O,-29.3
14,Cc1cc(C(=O)OCc2nnc(-c3ccccc3)o2)c(C)n1-c1ccccc1,-36.1
15,Cc1ccccc1CNS(=O)(=O)c1ccccc1[N+](=O)[O-],-11.2
16,COc1ccc(NC(=O)C2CCCN(S(=O)(=O)c3cccnc3)C2)c(OC)c1 (stereo not drawn),-0.765
17,COc1ccc(N=CC2=C(Nc3ccc(OC)cc3)c3c(C)nn(-c4ccccn4)c3CC2)cc1,-16.4
18,O=C(NCc1c(Cl)cccc1Oc1ccccc1)c1ccccc1,11
19,Cc1nc(S/C(=C/c2ccc(-c3ccc(Cl)cc3)o2)C(=O)O)n[nH]1,7.5
20,CCC1CCC/C1=N\NC(=O)c1ccoc1C (stereo not drawn),24.9
21,COc1cccc(NC(=O)c2sc3ncn(CC(=O)N4CCN(c5ccccn5)CC4)c(=O)c3c2C)c1,-0.877
22,Cc1ccc(S(=O)(=O)N(CC(O)CN(C)C)c2ccccc2)cc1.Cl (stereo not drawn),-65.6

row,Compound,"hERG current change (%, negative = inhibition) at 10uM [%]"
1,O=C(c1cccs1)N1CCN(S(=O)(=O)Cc2ccccc2)CC1,14.6
2,O=C(O)CCNC(=O)/C(=C/c1ccco1)NC(=O)c1ccco1,19.3
3,COC/C=C/C1=CC2=CC(=O)C(C)(OC(=O)c3cnc4ccccc4n3)C(=O)C2=CN1Cc1ccco1 (stereo not drawn),0.0609
4,COc1ccc(Cl)cc1NC(=O)CCS(=O)(=O)c1ccc(Br)cc1,3.8
5,Cc1ccc(S(=O)(=O)N2CCN(C(=S)NCC3CCCO3)CC2)cc1 (stereo not drawn),-17.8
6,O=C(CSc1ccc(-c2ccc(F)cc2)nn1)NCCc1ccccc1,15.2
7,OCCn1c(CSc2nc3ccccc3n2CCO)nc2ccccc21,-11.9
8,NC(=O)c1cccn(Cc2ccc(C(F)(F)F)cc2)c1=O,2.36
9,Cc1ccc(-c2cc(C(=O)NC3=NCCS3)c3ccccc3n2)cc1C,28.7
10,Nc1nc(-c2ccc(Cl)cc2)c(S(=O)(=O)c2ccccc2)s1,10.7
11,COc1ccc(S(=O)(=O)Nc2ccc(N3CCOCC3)cc2)cc1Br,-3.96
12,CC(C)(C)c1ccc(C(=O)CCC(=O)OCC(=O)NCCc2ccc(S(N)(=O)=O)cc2)cc1,-39.4
13,CS(=O)(=O)N(CC(=O)N1CCCC1)c1ccc(Cl)cc1,3.42
14,COCCNC(=O)CCC1CCN(Cc2cccc(-c3ccc(C)o3)c2)CC1,-25.3
15,CC(=O)Nc1ccc(NC(=O)COc2ccc([N+](=O)[O-])cc2)cc1,18.8
16,CCOc1cccc(NC(=O)C2CC(=O)N(C)C(=Nc3cccc(F)c3)S2)c1 (stereo not drawn),-13.4
17,Cc1onc(-c2c(F)cccc2Cl)c1C(=O)Nc1c(C)n(C)n(-c2ccccc2)c1=O,0.00478
18,CCCCC(CC)C1OCC(C[N+]2(C)CCOCC2)O1 (stereo not drawn),9.82
19,CCOC(=O)c1nnn2c1nc(N1CCN(C)CC1)c1ccccc12,-4.25
20,CC1CCCC(C)N1/N=C/c1cc(Br)cc(Br)c1O (stereo not drawn),10.1
21,NC(=S)c1ncc(C(F)(F)F)cc1Cl,14.2
22,Cc1ccc(C2(CCNCc3ccco3)CCOC(C(C)C)C2)cc1 (stereo not drawn),-35.6

row,Compound,"hERG current change (%, negative = inhibition) at 10uM [%]"
1,CC(C)(C)c1ccc(C(=O)NCCc2ccccc2)cc1,17.3
2,O=C(/C=C/c1c(F)cccc1Cl)Nc1nn[nH]n1,28.8
3,O=C(Cn1nnc(-c2ccc(F)cc2)n1)Nc1cccc(S(=O)(=O)N2CCCC2)c1,-40.1
4,COC(=O)CCCC(=O)NCC1(N(C)Cc2ccccc2)Cc2ccccc2C1,-13.9
5,Clc1ccc(-c2nc3ccccn3c2CN2CCSCC2)cc1,-20
6,Nc1ccc(C(=O)c2ccccc2C(=O)O)cc1Cl,0.632
7,CCOC(=O)CSc1nc2ccccc2c(=O)n1CC1CCCC1,-67.3
8,COCCNC(=O)CN(CC1CCCO1)C(=O)CCC(=O)Nc1ccccn1 (stereo not drawn),-12.1
9,O=C(NCCc1ccccc1)c1nc(-c2cccs2)no1,-12.4
10,O=C1COc2ccc(C(=O)COC(=O)c3cnc(Cl)c(Cl)c3)cc2N1,-0.639
11,O=C1N=C(N2CCOCC2)S/C1=C\c1ccc(OS(=O)(=O)c2ccccc2)cc1,-49.8
12,CCn1ccnc1CN(C)C(=O)CCc1nnc(CCCc2ccccc2)o1,-7.7
13,Cc1noc(NS(=O)(=O)c2ccc(NC(=O)CSc3nnc4c(n3)[nH]c3ccccc34)cc2)c1C,12
14,COc1ccc(CN(C(=O)CSc2nnc(-c3ccccc3F)o2)c2ccc(F)cc2)cc1,-1.29
15,Cc1ccc2[nH]c(C(=O)N3CCC(C(N)=O)CC3)cc2c1,8.07
16,S=C(Nc1ccc(Cl)cc1)N1CCCC1,14.5
17,CCN(CC)c1ccc(S(=O)(=O)N2CCOCC2)cc1NC(=O)COC(=O)/C=C/c1ccc(C)o1,-26.4
18,Fc1cccc(Cl)c1CSc1nnnn1-c1ccc2c(c1)OCO2,-29.3
19,COc1ccc(N=C2CC(C)(C)CC(=O)/C2=C(/O)c2ccccc2)cc1,-5.99
20,COc1ccc(NC(=O)CSc2ncnc3sc(C)cc23)cc1,4.61
21,O=C(Nc1cccc(O)c1)c1cccc(S(=O)(=O)N2CCCC2)c1,0.295
22,CC(C)CCN1CC(C(=O)NCc2ccccc2)CC1=O (stereo not drawn),-7.66

row,Compound,"hERG current change (%, negative = inhibition) at 10uM [%]"
1,O=C(NCc1ccc(OC(F)(F)F)cc1)C1CC(c2ccccc2[N+](=O)[O-])=NO1 (stereo not drawn),-68.3
2,O=C(NN1C(=O)/C(=C/c2ccc(O)cc2)SC1=S)c1ccccc1O,-9.44
3,Cc1nc(NC(=O)/C=C/c2ccccc2)sc1C(=O)Nc1cccc(Cl)c1,6.84
4,O=S(=O)(O)c1nnc2sc3ccccc3n12,19.4
5,COc1ccccc1NC(=O)COC(=O)CCn1c(C)csc1=O,8.69
6,COc1c(C)cccc1C(=O)Nc1cc(Cl)ccc1N1CCOCC1,7.1
7,O=C(CSCc1ccccc1)N/N=C/c1cc2c(cc1Br)OCO2,4.47
8,O=C(CS(=O)(=O)Cc1ccccc1)N1CCc2ccccc21,-13.5
9,CCOC(=O)Nc1ccc(Oc2ccccc2)cc1,-43.8
10,CC1CCN(c2oc(-c3ccc(F)cc3)nc2C#N)CC1,-6.35
11,Cc1cc(C(=O)Nc2ncc(C)s2)c2ccccc2n1,-16.4
12,CCn1c(O)c(N=NC(=O)CNC(=O)c2ccco2)c2ccccc21,7.12
13,COc1ccc(CCNC(=S)NCCc2c[nH]c3ccccc23)cc1,-4.64
14,O=C(CCn1c(=S)oc2ccccc21)NC1CCCCCCC1,-7.06
15,Cc1ccc(S(=O)(=O)N(CC(=O)Nc2ccccc2-c2ccccc2)c2ccc(C)cc2C)cc1,6.05
16,C[C@H]([C@@H](N)C(=O)N[C@@H](C(=O)O)[C@@H]1O[C@H](n2ccc(=O)[nH]c2=O)[C@@H](O)[C@H]1O)[C@@H](O)c1ccc(O)cn1,2.64
17,COc1ccc(/C(N)=N/OC(=O)c2ccc([N+](=O)[O-])c(C)c2)cc1OC,-16.5
18,O=C(NCc1ccccc1C(F)(F)F)C1CCC(=O)N(C2CC2)C1 (stereo not drawn),0.171
19,O=C(Nc1ccc2snnc2c1)Nc1cccc2ccccc12,5.36
20,O=C(Nc1ccnc(-c2ccncc2)n1)C1CC1,-27.7
21,CCCn1c(O)c(N=N)c2ccccc21,14.1
